# Laboratory results: patent US20130116195A1, “Binding ligand linked drug delivery conjugates of tubulysins” (priority 2009, published 2013)
# Not every detail of the peptide structures is certain; ends, links or a residue may be inferred.
# Key:
# subcutaneous KB tumors = assay: KB tumor assay, inhibition of tumor growth in mice; assay type: in vivo, nu/nu mice; conditions: for number of complete responses / number of cures / number of partial responses: q2d; for outcome at all the three doses tested: 1, 2 or 3 μmol/kg
# Procedure: METHOD: Inhibition of Tumor Growth in Mice. Four to seven week-old mice (Balb/c or nu/nu strains) were purchased from Harlan Sprague Dawley, Inc. (Indianapolis, Ind.). Normal rodent chow contains a high concentration of folic acid (6 mg/kg chow); accordingly, mice used were maintained on the folate-free diet (Harlan diet #TD00434) for 1 week before tumor implantation to achieve serum folate concentrations close to the range of normal human serum. For tumor cell inoculation, 1×10^6 M109 cells (Balb/c strain) or 1×10^6 KB cells (nu/nu strain) in 100 μL were injected in the subcutis of the dorsal medial area. Tumors were measured in two perpendicular directions every 2-3 days using a caliper, and their volumes were calculated as 0.5×L×W^2, where L=measurement of longest axis in mm and W=measurement of axis perpendicular to L in mm. […] Dosing solutions were prepared fresh each day in PBS and administered through the lateral tail vein of the mice.
# METHOD: General KB Tumor Assay. The anti-tumor activity of the compounds described herein, when administered intravenously (i.v.) to tumor-bearing animals, was evaluated in nu/nu mice bearing subcutaneous KB tumors. Approximately 8 days post tumor inoculation in the subcutis of the right axilla with 1×10^6 KB cells (average tumor volume at to=50-100 mm^3), in mice (5/group) were injected i.v. three times a week (TIW), for 3 weeks with 5 μmol/kg of the drug delivery conjugate or with an equivalent dose volume of PBS (control), unless otherwise indicated. Tumor growth was measured using calipers at 2-day or 3-day intervals in each treatment group. Tumor volumes were calculated using the equation V=a×b^2/2, where “a” is the length of the tumor and “b” is the width expressed in millimeters.
# METHOD: Additional In vivo antitumor method. Four to six week-old female nu/nu mice (Charles River, Wilmington, Mass.) were maintained on a standard 12 h light-dark cycle and fed ad libitum with folate-deficient chow (Harlan diet #TD00434, Harlan Teklad, Madison, Wis.) for the duration of the experiment. KB cells (1×10^6 per nu/nu mouse) in 100 μL were injected in the subcutis of the dorsal medial area. Mice were divided into groups of five, and test articles were freshly prepared and injected through the lateral tail vein under sterile conditions in a volume of 200 μL of phosphate-buffered saline (PBS). Intravenous (i.v.) treatments were typically initiated on approximately 9 post-tumor cell implantation when the KB tumors were approximately 100-200 mm^3 in volume. The mice in the control groups received no treatment. Growth of each s.c. tumor was followed by measuring the tumor three times per week during treatment and twice per week thereafter until a volume of 1500 mm^3 was reached. Tumors were measured in two perpendicular directions using Vernier calipers, and their volumes were calculated as 0.5×L×W^2, where L=measurement of longest axis in mm and W=measurement of axis perpendicular to L in mm. As a general measure of toxicity, changes in body weights were determined on the same schedule as tumor volume measurements. Survival of animals was monitored daily. Animals that were moribund (or unable to reach food or water) were euthanized by CO2 asphyxiation. All in vivo studies were performed in accordance with the American Accreditation Association of Laboratory Animal Care guidelines.
# For individual tumors, a partial response (PR) was defined as volume regression >50% but with measurable tumor (>2 mm^3) remaining at all times. Complete response (CR) was defined as a disappearance of measurable tumor mass (<2 mm^3) at some point until the end of the study. Cures were defined as CR's without tumor re-growth within the study time frame.
# subcutaneous M109 tumors = assay: M109 tumor assay; assay type: in vivo, Balb/c mice; conditions: FIG. 7; 2 umol/kg, TIW, 2 weeks
# [1] = molecular target: T1, folate receptors (FRs) on KB cells (Homo sapiens, UniProt P15328); assay: Relative Affinity Assay (displacement of 3H-folic acid); assay type: binding; conditions: 10% serum/FDRPMI
# T1 construct: FR-positive KB cells were heavily seeded into 24-well cell culture plates; endogenous in cells; host or cells: KB cells
# Procedure: METHOD: Relative Affinity Assay. The affinity for folate receptors (FRs) relative to folate was determined according to a previously described method (Westerhof, G. R., J. H. Schornagel, et al. (1995) Mol. Pharm. 48: 459-471) with slight modification. Briefly, FR-positive KB cells were heavily seeded into 24-well cell culture plates and allowed to adhere to the plastic for 18 h. Spent incubation media was replaced in designated wells with folate-free RPMI (FFRPMI) supplemented with 100 nM ^3H-folic acid in the absence and presence of increasing concentrations of test article or folic acid. Cells were incubated for 60 min at 37° C. and then rinsed 3 times with PBS, pH 7.4. Five hundred microliters of 1% SDS in PBS, pH 7.4, were added per well. Cell lysates were then collected and added to individual vials containing 5 mL of scintillation cocktail, and then counted for radioactivity. Negative control tubes contained only the ^3H-folic acid in FFRPMI (no competitor). Positive control tubes contained a final concentration of 1 mM folic acid, and CPMs measured in these samples (representing non-specific binding of label) were subtracted from all samples.
# [2] = FIG. 5A text, 0.5 μmol/kg three times per week for two weeks
# [3] = FIG. 5A, 0.5 μmol/kg three times per week for two weeks
# [4] = FIG. 10, 0.5 μmol/kg, 6 doses, 5 mice per treatment
# [5] = FIG. 9, 3 μmol/kg, 6 doses (EC0543 only dosed 3 times)
# T1 sequence (P15328 25-234): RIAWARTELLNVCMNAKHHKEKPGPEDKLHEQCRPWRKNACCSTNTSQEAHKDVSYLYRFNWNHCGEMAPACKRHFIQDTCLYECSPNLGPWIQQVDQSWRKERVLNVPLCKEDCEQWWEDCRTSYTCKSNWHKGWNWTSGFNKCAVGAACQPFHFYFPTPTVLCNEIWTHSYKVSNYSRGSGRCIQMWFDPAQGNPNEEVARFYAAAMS
SMILES,complete responses (animals) (subcutaneous KB tumors; [2]),number of partial responses (PR) out of the total number of treated animals (subcutaneous KB tumors; [3]),number of complete responses (subcutaneous KB tumors; [4]),number of cures (subcutaneous KB tumors; [4]),number of partial responses (subcutaneous KB tumors; [4]),"number of complete responses (subcutaneous KB tumors; FIG. 9, 1 μmol/kg, 6 doses)","number of cures (subcutaneous KB tumors; FIG. 9, 1 μmol/kg, 6 doses)","number of partial responses (subcutaneous KB tumors; FIG. 9, 1 μmol/kg, 6 doses)","number of complete responses (subcutaneous KB tumors; FIG. 9, 2 μmol/kg, 6 doses)","number of cures (subcutaneous KB tumors; FIG. 9, 2 μmol/kg, 6 doses)","number of partial responses (subcutaneous KB tumors; FIG. 9, 2 μmol/kg, 6 doses)",number of complete responses (subcutaneous KB tumors; [5]),number of cures (subcutaneous KB tumors; [5]),number of partial responses (subcutaneous KB tumors; [5]),outcome at all the three doses tested (subcutaneous KB tumors; FIG. 9),further results
CCCC(=O)OCN(C(=O)[C@@H](NC(=O)[C@H]1CCCCN1C)C(C)CC)[C@H](C[C@@H](OC(C)=O)c1nc(C(=O)N[C@@H](Cc2ccc(O)cc2)C[C@H](C)C(=O)NNC(=O)OCCSSC[C@H](NC(=O)[C@H](CC(=O)O)NC(=O)[C@H](CCCNC(=N)N)NC(=O)[C@H](CC(=O)O)NC(=O)CC[C@H](NC(=O)c2ccc(NCc3cnc4nc(N)[nH]c(=O)c4n3)cc2)C(=O)O)C(=O)O)cs1)C(C)C (stereo partly shown) [EC0305],complete responses in all animals,0/5,0,0,0,–,–,–,–,–,–,–,–,–,–,"start of tumor regrowth (subcutaneous KB tumors; FIG. 5A, 0.5 μmol/kg three times per week for two weeks, last dosing day 20): ~35 day PTI; ratio of complete responses (CR) to the number of treated animals (subcutaneous M109 tumors): 4/5"
CCC(C)[C@H](NC(=O)[C@H]1CCCCN1C)C(=O)N(COC(=O)CC(C)C)[C@H](C[C@@H](OC(C)=O)c1nc(C(=O)N[C@@H](Cc2ccc(O)cc2)C[C@H](C)C(=O)NNC(=O)OCCSSC[C@H](NC(=O)[C@H](CC(=O)O)NC(=O)[C@H](CCCNC(=N)N)NC(=O)[C@H](CC(=O)O)NC(=O)CC[C@H](NC(=O)c2ccc(NCc3cnc4nc(N)[nH]c(=O)c4n3)cc2)C(=O)O)C(=O)O)cs1)C(C)C (stereo partly shown) [EC0510],–,–,3,1,1,–,–,–,–,–,–,–,–,–,–,–
CCCC(=O)OCN(C(=O)[C@@H](NC(=O)[C@H]1CCCCN1C)C(C)CC)[C@H](C[C@@H](OC(C)=O)c1nc(C(=O)N[C@@H](Cc2ccc(O)cc2)C[C@H](C)C(=O)NNC(=O)OCCSSC[C@H](NC(=O)[C@H](CCC(=O)NC[C@H](O)[C@@H](O)[C@H](O)[C@H](O)CO)NC(=O)[C@H](CCC(=O)O)NC(=O)[C@H](CCC(=O)NC[C@H](O)[C@@H](O)[C@H](O)[C@H](O)CO)NC(=O)[C@H](CCC(=O)NC[C@H](O)[C@@H](O)[C@H](O)[C@H](O)CO)NC(=O)[C@H](CCC(=O)O)NC(=O)[C@H](CCC(=O)NC[C@H](O)[C@@H](O)[C@H](O)[C@H](O)CO)NC(=O)CC[C@H](NC(=O)c2ccc(NCc3cnc4nc(N)[nH]c(=O)c4n3)cc2)C(=O)O)C(=O)O)cs1)C(C)C (stereo partly shown) [EC0530],–,–,1,0,3,–,–,–,–,–,–,–,–,–,–,–
CCCC(=O)OCN(C(=O)[C@@H](NC(=O)[C@H]1CCCCN1C)C(C)CC)[C@H](C[C@@H](OC(C)=O)c1nc(C(=O)N[C@@H](Cc2ccc(O)cc2)C[C@H](C)C(=O)NNC(=O)OCCSSC[C@H](NC(=O)[C@H](CCC(=O)NC[C@H](O)[C@@H](O)[C@H](O)[C@H](O)CO)NC(=O)[C@H](CCC(=O)O)NC(=O)[C@H](CCC(=O)NC[C@H](O)[C@@H](O)[C@H](O)[C@H](O)CO)NC(=O)[C@H](CCC(=O)O)NC(=O)[C@H](CCC(=O)NC[C@H](O)[C@@H](O)[C@H](O)[C@H](O)CO)NC(=O)CC[C@H](NC(=O)c2ccc(NCc3cnc4nc(N)[nH]c(=O)c4n3)cc2)C(=O)O)C(=O)O)cs1)C(C)C (stereo partly shown) [EC0531],5 of 5,4/5,0,0,4,0,5,0,0,5,0,0,4,0,tumor free mice,"complete responses (animals) (subcutaneous KB tumors; FIG. 4, TIW, two week schedule, dose at or above 1 μmol/kg): 5 of 5; animals with no recurrence or regrowth of the tumors during the entire observation period (subcutaneous KB tumors; FIG. 4A, TIW two weeks, doses at or above 1 μmol/kg, last administration more than 70 days earlier): 5 of 5; tumor recurrence or regrowth in the entire 60-plus day observation period (subcutaneous KB tumors; [3]): no tumor recurrence or regrowth; relative affinity for the folate receptor compared to folic acid [1]: 49%; relative affinity ([1]; folic acid set to 1): 0.49"
CCC(C)[C@H](NC(=O)[C@H]1CCCCN1C)C(=O)N(COC(=O)CC(C)C)[C@H](C[C@@H](OC(C)=O)c1nc(C(=O)N[C@@H](Cc2ccc(O)cc2)C[C@H](C)C(=O)NNC(=O)OCCSSC[C@H](NC(=O)[C@H](CCC(=O)NC[C@H](O)[C@@H](O)[C@H](O)[C@H](O)CO)NC(=O)[C@H](CCC(=O)O)NC(=O)[C@H](CCC(=O)NC[C@H](O)[C@@H](O)[C@H](O)[C@H](O)CO)NC(=O)[C@H](CCC(=O)NC[C@H](O)[C@@H](O)[C@H](O)[C@H](O)CO)NC(=O)[C@H](CCC(=O)O)NC(=O)[C@H](CCC(=O)NC[C@H](O)[C@@H](O)[C@H](O)[C@H](O)CO)NC(=O)CC[C@H](NC(=O)c2ccc(NCc3cnc4nc(N)[nH]c(=O)c4n3)cc2)C(=O)O)C(=O)O)cs1)C(C)C (stereo partly shown) [EC0533],–,–,1,3,1,–,–,–,–,–,–,–,–,–,–,–
CCC(C)[C@H](NC(=O)[C@H]1CCCCN1C)C(=O)N(COC(=O)CC(C)C)[C@H](C[C@@H](OC(C)=O)c1nc(C(=O)N[C@@H](Cc2ccc(O)cc2)C[C@H](C)C(=O)NNC(=O)OCCSSC[C@H](NC(=O)[C@H](CCC(=O)NC[C@H](O)[C@@H](O)[C@H](O)[C@H](O)CO)NC(=O)[C@H](CCC(=O)O)NC(=O)[C@H](CCC(=O)NC[C@H](O)[C@@H](O)[C@H](O)[C@H](O)CO)NC(=O)[C@H](CCC(=O)O)NC(=O)[C@H](CCC(=O)NC[C@H](O)[C@@H](O)[C@H](O)[C@H](O)CO)NC(=O)CC[C@H](NC(=O)c2ccc(NCc3cnc4nc(N)[nH]c(=O)c4n3)cc2)C(=O)O)C(=O)O)cs1)C(C)C (stereo partly shown) [EC0543],–,–,2,3,0,0,5,0,0,5,0,0,4,0,tumor free mice,–
